Laboratory results reported in US20150259422A1 (UNIVERSITY OF NORTH CAROLINA AT CHAPEL HILL, published 2015).

B1: VH5/Vκ2 Composite Human Antibody variant of HLMC (antibody, human IgG1, kappa)
heavy: QAQLVQSGAEVKKPGASVKVSCKASGYLFSNSWMNWVKQRRGAGLEWIGRIFPGDGDTNYNGKFKGRVTITADKSTSTAYMELSSLRSEDTAVYYCARWGLTRDRRLYLDYWGQGTTVTVSS[human IgG1 constant region omitted here]
light: DIVMTQSPDSLAVSLGERATINCKSSQSLLYSSNQKNYLAWYQQKPGQAPRLLIYWASTRESGVPDRFTGSGSGTDFTLTISSLQAEDVAVYYCKQYYTYPLTFGQGTKLEIKRTVAAPSVFIFPPSDEQLKSGTASVVCLLNNFYPREAKVQWKVDNALQSGNSQESVTEQDSKDSTYSLSSTLTLSKADYEKHKVYACEVTHQGLSSPVTKSFNRGEC
notes: also called VH5VK2; Vh5/Vk2
B2: VPI-2690B (antibody, human IgG1, kappa)
heavy: B1 heavy with A2V
light: B1 light
notes: also called VH6/Vκ2; optimized humanized monoclonal IgG1

Experiments:
[1] = target: T1, alphaVbeta3 integrin, native human, on rhabdomyosarcoma (RD) cells and on human umbilical vein endothelial … (human, UniProt P06756 31-1048; P05106 27-788); assay: flow cytometry on RD cells expressing alphaVbeta3; reference chimeric HLMC
T1 construct: whole, on cells; also called αVβ3; native human β3

[2] = target: T2, human C-loop peptide antigen (β3 cysteine loop peptide) (human, cysteine pairing not given here; also: coated as C-loop peptide conjugate, carrier not given here); assay: ELISA on plate-coated C-loop peptide conjugate, four-parameter fit; mean ± SD, n = 3
T2 construct: also called human peptide antigen; C-loop antigen peptide
T2 peptide: CYDMKTTC

[3] = target: T1, alphaVbeta3 integrin, native human, on …; assay: flow cytometry on human rhabdomyosarcoma cells
[4] = target: T1, alphaVbeta3 integrin, native human, on …; assay: flow cytometry on RD cells expressing alphaVbeta3, PE anti-human IgG; EC50 = concentration where 50% of cells gated in R2
[5] = target: T2, human C-loop peptide antigen (β3 …); assay: ELISA on plate-coated human C-loop peptide conjugate
[6] = target: T3, monkey β3 expressed in CHO-K1 cells (monkey (Callithrix jacchus), UniProt U3B9A7 27-788); assay: cell based ELISA on CHO cells expressing monkey β3; mean ± SEM, N = 3
T3 construct: whole, on cells; Only the β3 subunit was transfected; also called MOβ3; monkey integrin β3
T3 sequence: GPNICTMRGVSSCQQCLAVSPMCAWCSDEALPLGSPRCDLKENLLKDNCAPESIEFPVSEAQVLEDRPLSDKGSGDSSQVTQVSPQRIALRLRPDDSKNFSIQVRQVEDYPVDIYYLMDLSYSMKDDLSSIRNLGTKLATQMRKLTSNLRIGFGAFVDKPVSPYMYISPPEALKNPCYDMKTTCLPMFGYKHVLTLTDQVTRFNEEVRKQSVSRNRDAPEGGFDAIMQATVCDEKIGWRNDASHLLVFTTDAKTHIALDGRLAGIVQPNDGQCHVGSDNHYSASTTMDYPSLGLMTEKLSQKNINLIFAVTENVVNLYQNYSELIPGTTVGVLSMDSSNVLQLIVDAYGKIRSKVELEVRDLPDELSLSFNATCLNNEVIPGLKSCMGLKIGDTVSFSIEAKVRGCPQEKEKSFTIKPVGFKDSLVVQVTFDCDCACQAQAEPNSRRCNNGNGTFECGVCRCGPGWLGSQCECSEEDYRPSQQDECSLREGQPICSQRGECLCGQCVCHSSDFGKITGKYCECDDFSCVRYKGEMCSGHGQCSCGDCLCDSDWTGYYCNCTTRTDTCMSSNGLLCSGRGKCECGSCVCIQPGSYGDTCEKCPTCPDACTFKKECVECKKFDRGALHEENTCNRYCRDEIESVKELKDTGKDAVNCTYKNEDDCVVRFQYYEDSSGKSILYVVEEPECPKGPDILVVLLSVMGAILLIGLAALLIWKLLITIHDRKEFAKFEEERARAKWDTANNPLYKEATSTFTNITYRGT

[7] = target: T1, alphaVbeta3 integrin, native human, on …; assay: cell based ELISA on HUVEC cultured in high glucose (25 mM/L); mean ± SEM, N = 6
[8] = target: T4, rat β3 expressed in CHO-K1 cells (rat, UniProt Q8R2H2 26-787); assay: cell based ELISA on CHO cells expressing rat β3; mean ± SEM, N = 3
T4 construct: whole, on cells; Only the β3 subunit was transfected; also called RAβ3; rat integrin β3
T4 sequence (looked up): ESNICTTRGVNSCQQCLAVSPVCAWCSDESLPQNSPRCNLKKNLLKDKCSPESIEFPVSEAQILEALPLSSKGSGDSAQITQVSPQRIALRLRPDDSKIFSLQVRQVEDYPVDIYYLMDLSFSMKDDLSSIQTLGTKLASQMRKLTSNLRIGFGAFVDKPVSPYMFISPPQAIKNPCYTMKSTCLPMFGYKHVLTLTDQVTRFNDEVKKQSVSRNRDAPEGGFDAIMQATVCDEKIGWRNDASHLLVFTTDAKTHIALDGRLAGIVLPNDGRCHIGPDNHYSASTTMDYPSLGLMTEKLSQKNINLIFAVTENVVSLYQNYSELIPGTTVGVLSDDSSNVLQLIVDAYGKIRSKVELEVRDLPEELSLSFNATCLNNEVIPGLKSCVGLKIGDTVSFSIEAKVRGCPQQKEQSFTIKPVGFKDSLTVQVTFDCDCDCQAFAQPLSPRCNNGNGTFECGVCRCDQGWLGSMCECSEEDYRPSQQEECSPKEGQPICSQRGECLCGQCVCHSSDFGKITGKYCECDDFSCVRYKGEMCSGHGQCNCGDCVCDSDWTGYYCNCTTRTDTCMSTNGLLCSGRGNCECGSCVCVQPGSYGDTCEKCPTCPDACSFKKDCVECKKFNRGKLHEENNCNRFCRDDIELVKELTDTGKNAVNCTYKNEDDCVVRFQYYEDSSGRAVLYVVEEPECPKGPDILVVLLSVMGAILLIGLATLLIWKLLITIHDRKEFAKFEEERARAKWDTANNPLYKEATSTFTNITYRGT

[9] = target: T1, alphaVbeta3 integrin, native human, on …; assay: cell based ELISA on HUVEC cultured in normal glucose (5 mM/L); mean ± SEM, N = 4
[10] = target: T5, human β3 expressed in CHO-K1 cells (CHO-Huβ3) (human, UniProt P05106 27-788); assay: cell based ELISA on CHO-K1 cells expressing human β3; mean ± SEM, N = 3 assays
T5 construct: whole, on cells; Only the β3 subunit was transfected; also called CHO-Hub3; CHO-K1 - Huβ3

T1 sequence (P06756 31-1048): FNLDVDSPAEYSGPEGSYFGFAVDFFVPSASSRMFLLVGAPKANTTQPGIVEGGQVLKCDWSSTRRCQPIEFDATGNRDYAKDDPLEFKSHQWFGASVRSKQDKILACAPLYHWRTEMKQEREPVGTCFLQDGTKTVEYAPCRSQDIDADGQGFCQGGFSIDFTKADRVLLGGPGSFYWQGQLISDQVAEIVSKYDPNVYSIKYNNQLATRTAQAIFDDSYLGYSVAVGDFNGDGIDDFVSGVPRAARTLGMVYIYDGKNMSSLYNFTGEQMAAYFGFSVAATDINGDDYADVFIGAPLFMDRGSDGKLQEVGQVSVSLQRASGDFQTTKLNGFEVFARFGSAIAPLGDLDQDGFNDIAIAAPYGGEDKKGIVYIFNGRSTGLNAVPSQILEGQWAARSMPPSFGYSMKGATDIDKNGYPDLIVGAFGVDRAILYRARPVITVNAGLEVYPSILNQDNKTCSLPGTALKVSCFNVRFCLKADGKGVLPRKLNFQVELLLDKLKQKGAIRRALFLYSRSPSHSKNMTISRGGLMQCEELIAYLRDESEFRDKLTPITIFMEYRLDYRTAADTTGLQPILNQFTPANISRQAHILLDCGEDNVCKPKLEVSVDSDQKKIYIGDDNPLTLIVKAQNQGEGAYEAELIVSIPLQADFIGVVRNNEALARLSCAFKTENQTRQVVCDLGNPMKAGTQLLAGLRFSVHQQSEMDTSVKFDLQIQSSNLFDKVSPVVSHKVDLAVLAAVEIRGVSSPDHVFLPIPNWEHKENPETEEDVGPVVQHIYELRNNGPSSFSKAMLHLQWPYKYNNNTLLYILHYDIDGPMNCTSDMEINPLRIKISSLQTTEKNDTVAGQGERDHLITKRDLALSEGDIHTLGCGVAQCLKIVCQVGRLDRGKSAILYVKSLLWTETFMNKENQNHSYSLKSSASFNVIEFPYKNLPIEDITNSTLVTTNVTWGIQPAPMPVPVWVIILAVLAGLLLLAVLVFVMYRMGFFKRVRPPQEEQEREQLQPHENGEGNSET

relative binding score (EC50 of variant divided by EC50 of chimeric HLMC) [1]	Kd [2]	EC50 [3]	EC50 [4]	fold increase in affinity against the parent murine monoclonal [5]	EC50 [6]	EC50 [7]	EC50 [8]	EC50 [9]	EC50 [10]	Binder
0.96 ratio	0.21 nM	18 nM	3.43 nM	–	–	–	–	–	–	B1
–	0.28 nM	–	–	~5 fold	22.5 nM	32.9 nM	12.9 nM	11.8 nM	20.3 nM	B2

Positions count from the first letter of the chain named. No end group written: not given here.
